About 1,700 (3.3%) of roughly 52,000 compounds were called active. Rule as the data show it: active = survival mostly below about 52% (no sharp cut-off); inactive = mostly above about 56%. The list shows a part of the results.

This experiment concerns Wild type. Put plainly: growth inhibition of S. aureus wild type versus tarO mutant, primary screen, teichoic acid synthesis inhibitors, RN4220, OD600 (AID 463173). Conditions: S. aureus RN4220 wild type/DeltatarO growth, OD600, 18 h, hits give low values, screened at 18.75 µg/mL (by protocol).
Regarding `Cc1ccc(CNC(=O)C(=O)Nc2c3c(nn2-c2ccccc2)CSC3)cc1`, the survival is inactive: 82%.
For the compound `C=CCN(CC=C)C(=O)c1ccc(SC)cc1OC`, the survival was inactive: 88%.
Regarding `COc1ccc(CCNC(=O)C(=O)Nc2ccccc2F)cc1`, the survival was inactive: 75%.
In the case of `COc1ccccc1C(=O)NCCn1cc(SCC(=O)Nc2ccccc2F)c2ccccc21`, the survival is inactive: 65%.
Regarding `CC1CCN(S(=O)(=O)c2ccc3c(c2)N(CC(=O)NC(C)c2ccccc2)C(=O)CS3)CC1` (configuration not stated), the survival is inactive: 88%.
For `O=C(Cc1cccs1)NCCCc1ccccc1` the value was inactive: 112%; for `O=C(NCc1ccccc1)c1ccc(CNS(=O)(=O)c2ccc(Br)cc2)cc1`, inactive: 89%; for `COc1ccccc1CNS(=O)(=O)c1ccc2c(c1)CC(C)N2C(C)=O` (configuration not stated), inactive: 82%.
Regarding `Cc1ccc(C)c(N2CCN(S(=O)(=O)c3ccc4[nH]c5c(c4c3)CCCCC5)CC2)c1`, the survival is inactive: 89%.
With `CC(C)Cn1cc(NC(=O)N2CCN(c3cccc(Cl)c3)CC2)c2ccccc2c1=O` the figure was inactive: 77%.
For `CCc1ccc(NC(=O)N2CCOc3ccc(Cl)cc32)cc1`, the survival was inactive: 79%.
Take `COc1cc(Cl)c(S(=O)(=O)NCCc2c(C)[nH]c3c(C)cccc23)cc1Cl`: the survival is inactive: 108%.
Take `Cc1ccc(-c2nc(NC(=O)CSc3cc(C)c4ccccc4n3)ns2)cc1`: the survival was inactive: 71%.
With `Cc1cc(C)c(NC(=O)c2cc(S(=O)(=O)N3CCC4(CC3)OCCO4)ccc2F)c(C)c1`, the survival is inactive: 73%.
With `COc1ccc2sc(C)[n+](CCO)c2c1`, the survival is inactive: 97%.
For `COC(=O)c1ccc(NC(=O)CC2C(=O)N(c3cccc(OC)c3)C(=O)N2Cc2cccs2)cc1` (configuration not stated) the value was inactive: 63%; for `COc1ccc(Cn2c(C(=O)O)c(CNCc3ccccc3F)c3ccc(OC)cc32)cc1`, inactive: 81%; for `COC(=O)c1ccc(C2c3c(-c4ccccc4O)n[nH]c3C(=O)N2Cc2cccnc2)cc1` (configuration not stated), inactive: 80%.
`CCN(CCCNC(=O)Cn1ncc2c3ccccc3n(C)c2c1=O)Cc1ccccc1`: the survival was inactive: 80%.
For `CCCSc1ncc(Cl)c(C(=O)Nc2ccc(S(=O)(=O)N(C)c3ccccc3)cc2)n1` the value was inactive: 84%; for `CCS(=O)(=O)n1nc(-c2ccco2)nc1N`, inactive: 110%.
For `O=C(Nc1nnc(S(=O)(=O)N2CCCc3ccccc32)s1)c1cccc(Cl)c1`, the survival was active: 6%.
Take `CCc1ccc(NC(=O)CSc2nc(=O)n(Cc3ccccn3)c3c2CCC3)cc1`: the survival is inactive: 66%.
Regarding `COc1cccc(C2C(C(=O)Nc3ccc(C)cc3C)=C(C)Nc3c(C(=O)Nc4ccccc4)cnn32)c1` (configuration not stated), the survival was inactive: 85%.
`O=C(Nc1cc(-c2nc3cc(Cl)ccc3o2)ccc1Cl)c1ccco1`: the survival is inactive: 68%.
Regarding `CC1CCCN(C(=O)CSc2c3c(nc4cc(Cl)ccc24)CCCC3)C1` (configuration not stated), the survival is active: -1%.
With `Cc1cc(Cl)ccc1OCC(=O)N=Nc1c(O)[nH]c(=O)[nH]c1=O` the figure was inactive: 118%; with `COc1ccc(NC(=O)c2cc(S(=O)(=O)N3CCOCC3)ccc2OC)cc1`, inactive: 82%; with `CCc1cccc(C)c1NS(=O)(=O)c1c(C(=O)N2CCC(C)CC2)c(C)n(C)c1C`, inactive: 55%.
For `COc1ccc(S(=O)(=O)N2CCC(C(=O)Nc3ccc(Oc4ccccc4)cc3)CC2)cc1` the value was inactive: 98%; for `Cc1ccc(C)c(NC(=O)N2CCN(C(=O)c3nsc4ccccc34)CC2)c1`, inactive: 69%.
In the case of `COc1cc(Cl)c(C)cc1NC(=O)C1CCN(c2nc3ccccc3n3cccc23)CC1`, the survival is inactive: 78%.
For the compound `COc1ccc(S(=O)(=O)Nc2cccc(-c3ccc(N4CCCC4)nn3)c2)c(OC)c1`, the survival was inactive: 69%.
With `COc1ccc(OC)c(NS(=O)(=O)c2ccc3c(c2)C(C)(C)C(=O)N3C)c1` the figure was inactive: 78%.
Consider `CCOc1ccccc1N(CC)C(=O)Cn1ncc2c([nH]c3ccccc32)c1=O`, for which the survival is inactive: 64%.
In the case of `NC(=O)C1CCN(C(=O)c2ccc(NC(=O)c3nsc4ccccc34)cc2)CC1`, the survival was inactive: 82%.
As to `COc1cccc(CNC(=O)c2ccc3c(c2)c(C)c(C)n3Cc2ccccc2)c1`, the survival is inactive: 72%.
For `COc1ccc(CNC(=O)c2cc3cc4cc(OC)ccc4nc3o2)cc1` the value was inactive: 93%.
In the case of `Cc1nnc(N2CCC(C(=O)NC3CCCCC3)CC2)c2nn(-c3ccccc3)c(C)c12`, the survival was inactive: 84%.
In the case of `Clc1cccc(-c2ccc(CNCCSc3nnnn3-c3ccccc3)o2)c1`, the survival was inactive: 41%.
For `CC(=O)c1ccc(NC(=O)c2nc3ccccc3nc2N2CCCCC2)cc1`, the survival is inactive: 66%.
With `Cc1ccc2cc(C#N)c(SCC(=O)Nc3ccccc3)nc2c1`, the survival was inactive: 102%.
As for `O=C(c1ccccc1)N1CCN(CCc2ccncc2)CC1`, the survival is inactive: 84%.
`CCOc1ccc(CCNC(=O)c2cn(C)c3ccc(S(=O)(=O)N4CCCCC4)cc3c2=O)cc1OCC`: the survival is inactive: 132%.
On to `O=C(NC1CCCCC1)C(c1ccc(O)c(O)c1)N(C(=O)Cn1nnc2ccccc21)C1CCCCC1` (configuration not stated), for which the survival was inactive: 113%.
With `CC1=C(c2ccc(C)c(C)c2)S(=O)(=O)NC1=NCc1ccccc1Cl`, the survival was inactive: 86%.
For the compound `Cc1cc(C)c(NC(=O)c2sc3nc(C)cc(C)c3c2NC(=O)c2ccccc2)c(C)c1`, the survival is inactive: 70%.
For `CCOC(=O)c1c(C)[nH]c(C)c1S(=O)(=O)N1CCC(C(=O)Nc2cc(Cl)ccc2OC)CC1` the value was inactive: 81%.
Consider `COc1ccccc1C(=O)Nc1cccc(C(=O)OCc2cc(=O)n3cc(C)sc3n2)c1`, for which the survival was inactive: 75%.
As to `CCc1nc2nc(C)c(NS(=O)(=O)c3ccc(C(C)(C)C)cc3)c(=O)n2[nH]1`, the survival is inactive: 86%.
On to `O=C(CCn1cnc2ccccc2c1=O)NCc1ccccc1Cl`, for which the survival was inactive: 98%.
For `O=C(CNC(=O)c1ccc(F)cc1)OCc1cc(=O)n2nc(C3CC3)sc2n1`, the survival is inactive: 71%.
For `CCc1nn2c(=O)cc(COC(=O)COc3ccc(OC)cc3)nc2s1`, the survival is inactive: 82%.
Consider `COC(=O)CN1C(=O)CSc2ccc(S(=O)(=O)Nc3cc(C)ccc3C)cc21`, for which the survival is inactive: 19%.
For the compound `CCC(=O)N1c2ccccc2CC1C(=O)NCCc1ccc(OC)c(OC)c1` (configuration not stated), the survival was inactive: 95%.
For `Cc1c(C(=O)Nc2cccc(C(F)(F)F)c2)oc2ccc3c(c12)C(=O)CC(C)(C)O3`, the survival was inactive: 93%.
As to `COc1ccc(-c2nc(C)c(CCNS(=O)(=O)c3cc(Cl)ccc3Cl)s2)cc1`, the survival was inactive: 87%.

Source of the values: PubChem BioAssay AID463173 (ICCB-Longwood Screening Facility, Harvard Medical School, 2010).
